From the antibiotic and cytotoxicity screens of Wong et al. (2023)
This is one part of the list.

What follows are compounds tested on S. aureus RN4220 (assay: growth inhibition call (relative growth <= 0.2)). Conditions: 50 µM.

Row | SMILES | growth inhibition call
1 | O=C(CN1CCOCC1)NCC[C@H]1CC[C@H](NC(=O)Nc2ccccc2)[C@H](CO)O1 | inactive
2 | C[C@@H]1CN([C@H](C)CO)S(=O)(=O)c2ccc(C#CC(C)(C)O)cc2O[C@@H]1CN(C)C(=O)CN(C)C | inactive
3 | COc1cccc(-c2cnc3c(c2)C(=O)N([C@H](C)CO)C[C@H](C)[C@H](CN(C)S(=O)(=O)c2cccc(F)c2)O3)c1 | inactive
4 | Cc1noc(C)c1NC(=O)N(C)C[C@H]1OCCCC[C@@H](C)Oc2ccc(NC(=O)CCC(F)(F)F)cc2C(=O)N([C@@H](C)CO)C[C@H]1C | inactive
5 | Cc1ccc(S(=O)(=O)N[C@@H](Cc2ccccc2)C(=O)NCCn2cc(CCC(=O)NO)nn2)cc1 | inactive
6 | CN1CCN(C(=O)C[C@@H]2CC[C@H]3[C@@H](COc4ccc(NC(=O)C5CCCCC5)cc4C(=O)N3C)O2)CC1 | inactive
7 | Cc1cccc(S(=O)(=O)N2C[C@@H](O)COC[C@H]3O[C@@H](CC(=O)NCc4ccncn4)CC[C@@H]32)c1 | inactive
8 | C[C@@H]1CN([C@@H](C)CO)C(=O)c2c(c3ccccc3n2C)-c2ccccc2CO[C@H]1CN(C)C(=O)Nc1ccccc1 | inactive
9 | COc1ccc(S(=O)(=O)N[C@H]2C=C[C@@H](CC(=O)N3CCN(c4ccccc4)CC3)O[C@@H]2CO)cc1 | inactive
10 | C[C@@H]1CN([C@H](C)CO)C(=O)c2cc(NC(=O)Cc3ccccc3)ccc2O[C@@H](C)CCCCO[C@@H]1CN(C)Cc1ccncc1 | inactive
11 | CN(C)C(=O)C[n+]1ccc(/C=N/O)cc1 | inactive
12 | C[C@H](CO)N1C[C@H](C)[C@H](CN(C)C(=O)c2ccccc2)OCCCC[C@H](C)Oc2ccc(NC(=O)Nc3cccc4ccccc34)cc2C1=O | inactive
13 | Cc1nn(C)cc1NC(=O)C[C@H]1CC[C@@H]2[C@@H](COc3ccc(NC(=O)C4CCOCC4)cc3C(=O)N2C)O1 | inactive
14 | CNC[C@@H]1Oc2ccc(NC(=O)Cn3cnnn3)cc2CC(=O)N([C@H](C)CO)C[C@H]1C | inactive
15 | COc1ccc(NC(=O)Nc2ccc3c(c2)CC(=O)N([C@H](C)CO)C[C@H](C)[C@@H](CN(C)C(=O)Nc2cccc4ccccc24)O3)cc1 | inactive
16 | C=CCSc1nc(=O)cc(N)[nH]1 | inactive
17 | COCC(=O)N1C[C@H](C)[C@@H](OC)CN(C)C(=O)c2ccc(NC(=O)Nc3cccc(F)c3)cc2OC[C@H]1C | inactive
18 | O=C(C[C@H]1CC[C@@H](NC(=O)Cc2ccccn2)[C@H](CO)O1)NCCCN1CCOCC1 | inactive
19 | C[C@@H]1CN([C@@H](C)CO)C(=O)Cc2cc(NC(=O)CCC(F)(F)F)ccc2O[C@H]1CN(C)Cc1ccc(C(=O)Nc2ccccc2N)cc1 | inactive
20 | Cn1cccc1CNCCCN1CCOCC1 | inactive

Row | SMILES | growth inhibition call
21 | C[C@@H]1CN([C@@H](C)CO)C(=O)c2cc(NC(=O)CCC(F)(F)F)ccc2O[C@@H](C)CCCCO[C@H]1CN(C)S(=O)(=O)c1ccccc1 | inactive
22 | Cc1ccc(S(=O)(=O)Nc2ccc3c(c2)C(=O)N([C@H](C)CO)C[C@@H](C)[C@@H](CN(C)C(=O)C2CCCCC2)OCCCC[C@@H](C)O3)cc1 | inactive
23 | Cc1cc(C(=O)Nc2cccc3c2O[C@H](CN(C)Cc2ccc(C(=O)O)cc2)[C@@H](C)CN([C@H](C)CO)C3=O)n(C)n1 | inactive
24 | CCS(=O)(=O)N1C[C@]2(CN(Cc3cc(ccc3F)F)[C@H](CO)c3c2c2ccc(cc2n3C)OC)C1 | inactive
25 | O=C(O)C1C(=CCO)OC2CC(=O)N21.[LiH] (stereo not given) | active
26 | CC(C)(CO)[C@H](O)C(=O)NCCC(=O)NCCSSCCNC(=O)CCNC(=O)[C@H](O)C(C)(C)CO | inactive
27 | O=C(C=CC=Cc1ccc2c(c1)OCO2)N1CCCCC1 | inactive
28 | CC1COC2=C1C(=O)C(=O)c1c2ccc2c1CCCC2(C)C (stereo not given) | active
29 | C[C@H]1CN([C@@H](C)CO)C(=O)c2cc(NC(=O)Nc3cccc4ccccc34)ccc2O[C@@H]1CN(C)S(=O)(=O)c1ccc(F)cc1 | inactive
30 | C[C@@H]1CN([C@H](C)CO)C(=O)Cc2cc(NC(=O)c3ccncc3)ccc2O[C@@H]1CN(C)S(=O)(=O)c1ccccc1 | inactive
31 | CCC(=O)Oc1ccc2c(c1)CCC1C2CCC2(C)C1CC(OC(=O)CC)C2OC(=O)CC (stereo not given) | inactive
32 | C[C@@H]1CN([C@@H](C)CO)S(=O)(=O)c2ccc(C3=CCCC3)cc2O[C@H]1CN(C)S(=O)(=O)c1ccc(F)cc1 | inactive
33 | COC(=O)CC1(N)CCCCC1 | inactive
34 | CCS(=O)(=O)N1C[C@]2(CCN(CC2)S(=O)(=O)c2cccs2)c2c(n(c3cc(ccc23)OC)C)[C@H]1CO | inactive
35 | CC(C)=C[C@H]1[C@@H](c2nc3ccc(Br)cc3[nH]2)C1(C)C | inactive
36 | C[C@@H]1CCCCO[C@H](CN(C)S(=O)(=O)c2cn(C)cn2)[C@@H](C)CN([C@H](C)CO)C(=O)c2cc(NC(=O)CCCN(C)C)ccc2O1 | inactive
37 | C[C@@H]1CN([C@H](C)CO)C(=O)Cc2cc(NS(=O)(=O)c3ccc(F)cc3)ccc2O[C@@H]1CN(C)Cc1ccc(-c2ccccc2)cc1 | inactive
38 | C[C@@H]1CN([C@@H](C)CO)C(=O)c2cc(NC(=O)Nc3ccc(C(F)(F)F)cc3)ccc2O[C@H]1CN(C)C(=O)Nc1ccccc1 | inactive
39 | Cc1noc(C)c1S(=O)(=O)N(C)C[C@H]1OCc2cn(nn2)CCCC(=O)N([C@@H](C)CO)C[C@@H]1C | inactive
40 | Cc1noc(C)c1S(=O)(=O)Nc1cccc2c1O[C@H](CN(C)Cc1ccc(C(=O)O)cc1)[C@H](C)CN([C@H](C)CO)C2=O | inactive
